Measurements from the supplement of paper PMC7826260.
This is one part of the list. Viral Rep nickase domains cut single-stranded DNA in vitro (3 µM enzyme, 1 h, 37 °C); shown is the middle of each 90-letter strand. A value is the log2 ratio of uncut reads to the pool without enzyme; uncut sequences lie near 0, cut ones below; no hit call is given. Reads are scaled to the total, so uncut sequences can rise above 0 when many others are cut.

Legend:
Assay in all cases: uncleaved DNA left, log2 of reads against the no-enzyme library (log2 ratio); higher = less cleavage (more negative = more Rep cleavage of the k-mer); sequences stand for … in CTCGTCCG…ACCGGAGA
[1] = tested on: T1, Rep nickase domain of Muscovy duck circovirus
T1 sequence (Rep 1-111, printed without the tag): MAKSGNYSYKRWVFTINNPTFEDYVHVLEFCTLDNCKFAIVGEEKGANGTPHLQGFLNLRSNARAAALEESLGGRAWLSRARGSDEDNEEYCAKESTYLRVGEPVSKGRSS
Experimental: (§1)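 A pool of 90-nt single-stranded DNAs with seven random bases just before the constant AC of the nick site (name = the seven bases) was cut by 3 µM recombinant His6-SUMO-tagged Rep nickase domain (300 nM DNA, 50 mM HEPES pH 8.0, 50 mM NaCl, 1 mM MnCl2, 1 h, 37 °C, three replicates). Uncut DNA was amplified and sequenced.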

[2] = tested on: T2, Rep nickase domain of banana bunchy top virus
T2 sequence (Rep 1-94, printed without the tag): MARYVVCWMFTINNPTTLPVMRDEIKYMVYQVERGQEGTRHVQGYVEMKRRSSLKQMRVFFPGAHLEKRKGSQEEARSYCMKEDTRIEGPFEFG
Experimental: as §1

[3] = tested on: T3, Rep nickase domain of cabbage leaf curl virus
T3 sequence (Rep 1-116, printed without the tag): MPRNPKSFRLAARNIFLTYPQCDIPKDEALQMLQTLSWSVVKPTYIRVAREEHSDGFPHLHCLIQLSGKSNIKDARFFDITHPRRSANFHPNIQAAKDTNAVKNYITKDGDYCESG
Experimental: as §1

[4] = tested on: T4, Rep nickase domain of chickpea chlorotic dwarf virus
T4 sequence (Rep 1-124, printed without the tag): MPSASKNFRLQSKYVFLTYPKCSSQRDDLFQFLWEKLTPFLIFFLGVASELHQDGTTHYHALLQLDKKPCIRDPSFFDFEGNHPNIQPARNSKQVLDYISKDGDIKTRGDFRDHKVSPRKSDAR
Experimental: as §1

[5] = tested on: T5, Rep nickase domain of faba bean necrotic yellows virus
T5 sequence (Rep 1-98, printed without the tag): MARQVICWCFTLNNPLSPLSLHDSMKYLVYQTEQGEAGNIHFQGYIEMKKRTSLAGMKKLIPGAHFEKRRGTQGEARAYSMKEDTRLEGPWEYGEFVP
Experimental: as §1

[6] = tested on: T6, Rep nickase domain of maize striate mosaic virus
T6 sequence (Rep 1-117, printed without the tag): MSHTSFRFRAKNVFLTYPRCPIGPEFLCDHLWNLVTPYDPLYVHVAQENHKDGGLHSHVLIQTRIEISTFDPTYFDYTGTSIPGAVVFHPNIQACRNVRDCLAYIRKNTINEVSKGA
Experimental: as §1

[7] = tested on: T7, Rep nickase domain of porcine circovirus 2
T7 sequence (Rep 2-116, printed without the tag): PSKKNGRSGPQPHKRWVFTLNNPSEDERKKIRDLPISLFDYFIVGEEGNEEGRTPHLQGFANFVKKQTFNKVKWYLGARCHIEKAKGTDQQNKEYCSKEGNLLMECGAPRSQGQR
Experimental: as §1

[8] = tested on: T8, Rep nickase domain of tomato yellow leaf curl virus
T8 sequence (Rep 1-136, printed without the tag): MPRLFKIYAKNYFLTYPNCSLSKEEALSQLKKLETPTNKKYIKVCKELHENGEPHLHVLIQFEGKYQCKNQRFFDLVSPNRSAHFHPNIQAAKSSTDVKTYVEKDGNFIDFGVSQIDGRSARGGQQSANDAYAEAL
Experimental: as §1

[9] = tested on: T9, Rep nickase domain of wheat dwarf virus
T9 sequence (Rep 1-137, printed without the tag): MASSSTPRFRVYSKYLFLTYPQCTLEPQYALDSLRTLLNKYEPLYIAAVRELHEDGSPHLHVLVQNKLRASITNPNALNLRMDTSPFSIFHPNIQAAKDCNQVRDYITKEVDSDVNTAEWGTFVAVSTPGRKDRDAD
Experimental: as §1

Sequence | uncleaved DNA left (log2) [1] | uncleaved DNA left (log2) [2] | uncleaved DNA left (log2) [3] | uncleaved DNA left (log2) [4] | uncleaved DNA left (log2) [5] | uncleaved DNA left (log2) [6] | uncleaved DNA left (log2) [7] | uncleaved DNA left (log2) [8] | uncleaved DNA left (log2) [9]
CATTACC | -0.0766 | -0.0482 | -0.417 | -2.25 | 0.0139 | -0.979 | -1.71 | 0.00164 | -0.0905
TCAACAA | 0.0327 | 0.0608 | 0.0397 | -0.949 | 0.0856 | -0.399 | 0.0517 | 0.0999 | 0.0861
TGGAGCT | 0.101 | -0.0233 | 0.194 | 0.0742 | -0.0925 | 0.128 | 0.073 | 0.0318 | 0.103
AATAGGT | 0.0674 | 0.012 | 0.399 | 1.25 | 0.209 | 1.59 | -0.033 | -0.0523 | 0.106
TCCCTGC | -0.012 | -0.082 | -0.364 | -0.591 | -0.0767 | -0.97 | 0.137 | -0.0656 | -0.0235
CGTTGAA | 0.0354 | 0.0817 | -0.117 | -0.342 | 0.111 | -0.83 | 0.0176 | 0.0245 | -0.0075
TTACTCT | -0.0638 | -0.00311 | -0.322 | -2.96 | -0.0492 | -0.541 | -0.418 | -0.00954 | -0.146
CTACGTA | -0.0891 | -0.12 | -0.127 | -1.42 | 0.066 | -0.602 | 0.00528 | -0.0105 | -0.105
ATTGCAT | -0.0235 | 0.0946 | -0.596 | -0.512 | 0.114 | -0.855 | 0.0375 | 0.19 | -0.0123
ACATGCT | -0.473 | -0.148 | -0.838 | -1.42 | 0.011 | -0.963 | -0.735 | -0.0137 | -0.176
TTGGTTT | 0.0584 | -0.0493 | 0.186 | -0.845 | -0.0609 | 0.468 | -0.0164 | -0.0172 | -0.0111
GGGTTGG | 0.0414 | 0.0704 | 0.612 | 1.27 | 0.000601 | 1.57 | 0.217 | -0.0128 | 0.0325
TCTTGAC | 0.0148 | -0.0154 | 0.087 | -2.09 | -0.00641 | -0.161 | 0.0278 | -0.0314 | -0.162
GCAGAGG | 0.106 | 0.11 | -0.00967 | 0.479 | 0.143 | -0.0836 | 0.113 | -0.115 | 0.041
TCGTAGG | 0.115 | 0.0434 | 0.399 | 1.04 | -0.0018 | 1.24 | 0.0679 | -0.0809 | 0.0667
